The whole screen tested about 360,000 compounds, of which about 25,000 (6.9%) were called active. The shares of active, inactive and inconclusive entries below differ from those in the screen. Calls come from the whole dose curve; as a rule, active = well fitted inhibition curve with a large enough effect; inconclusive = small, poorly fitted or top-dose-only effect; inactive = flat fitted curve, though single readings scatter. Potencies of inconclusive entries are doubtful fits and often do not repeat.
These compounds were tested against Luciferin 4-monooxygenase (Photinus pyralis) (UniProt P08659) (assay: qHTS profiling assay for firefly luciferase inhibitor/activator using purifed enzyme and Km concentrations of substrates (counterscreen for miR-21 project)). Conditions: purified FLuc, luminescence inhibition; series mostly up to 57.5 µM.
Method in brief: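 Purified P. pyralis luciferase (10nM final) with 10uM D-luciferin and 10uM ATP (Km levels) in 50mM Tris acetate pH 7.5, 10mM Mg acetate, 0.01% Tween-20, 0.05% BSA; qHTS 6-point titration, ~60 µM downward; luminescence read.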
Note: nearly all actives have a fitted effect of over 55% in size.
Potency is the fitted concentration of half-maximal effect; tags give direction and shape of the fitted curve.

Sequence of UniProt P08659 (P08659 whole entry, looked up): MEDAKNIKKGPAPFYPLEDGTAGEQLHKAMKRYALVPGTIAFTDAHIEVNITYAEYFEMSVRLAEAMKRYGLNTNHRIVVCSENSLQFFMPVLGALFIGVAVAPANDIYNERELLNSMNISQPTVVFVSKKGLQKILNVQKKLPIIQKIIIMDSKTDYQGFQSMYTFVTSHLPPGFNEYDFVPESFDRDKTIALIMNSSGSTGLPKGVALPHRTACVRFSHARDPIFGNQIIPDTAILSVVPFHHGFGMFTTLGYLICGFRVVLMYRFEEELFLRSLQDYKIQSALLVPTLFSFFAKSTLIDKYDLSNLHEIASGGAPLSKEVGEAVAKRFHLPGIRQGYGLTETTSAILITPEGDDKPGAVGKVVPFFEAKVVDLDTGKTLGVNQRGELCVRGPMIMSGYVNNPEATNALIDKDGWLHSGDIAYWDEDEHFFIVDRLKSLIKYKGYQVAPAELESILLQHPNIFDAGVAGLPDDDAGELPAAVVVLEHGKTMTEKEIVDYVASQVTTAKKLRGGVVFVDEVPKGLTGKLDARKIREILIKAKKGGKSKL

SMILES | Potency
COc1ccc(/C=N/n2cnc3c([nH]c4ccccc43)c2=O)cc1COc1ccccn1 | inactive
Oc1ccc(/C=N/n2cc(-c3ccccc3)[nH]c2=S)cc1 | inconclusive: 23.9 µM [inhibitor, partial curve]
CCC(C)n1c(S(=O)(=O)O)nc2ccccc21 (stereo unspecified) | inactive
Cc1noc(C)c1CSCC(=O)OCC(=O)Nc1sccc1C#N | inconclusive: 19 µM [inhibitor, partial curve, poor fit]
O=C(CSc1nnc(CNc2ccccc2)o1)c1ccc2c(c1)OCCO2 | inconclusive: 37.9 µM [inhibitor, partial curve, poor fit]
Cc1ccc(OCCn2c(=S)[nH]c3c(N)ncnc32)cc1 | inconclusive: 37.9 µM [inhibitor, partial curve, poor fit]
CCCCc1c(C)[nH]c(C(=O)OCC)c1C | inconclusive: 10.7 µM [inhibitor, partial curve, poor fit]
Cc1ccc(N2CC(C(=O)Nc3ccc(S(=O)(=O)Nc4nccs4)cc3)CC2=O)cc1C (stereo unspecified) | inconclusive: 37.9 µM [inhibitor, partial curve, poor fit]
Cc1[nH]c2ccccc2c1C(=O)NS(=O)(=O)Nc1ccc(F)cc1 | inconclusive: 26.9 µM [inhibitor, partial curve, poor fit]
CN(C)C(=O)c1ccc(Nc2ncnc3sc4c(c23)CCCCC4)cc1 | inconclusive: 30.1 µM [inhibitor, single point]
COc1ccc(C(=O)Nc2ccc3nc(N4CCOCC4)sc3c2)cc1OC | inconclusive: 37.9 µM [inhibitor, partial curve, poor fit]
S=C(NN=C1C2CC3CC(C2)CC1C3)Nc1ccccc1 | inconclusive: 23.9 µM [inhibitor, single point]
Oc1ccc(-c2csc(Nc3ccccn3)n2)cc1O | active: 9.53 µM
CN1CCN(CCCNC(=O)c2ccc(/C=C3\Sc4ccccc4N(Cc4ccc(F)cc4)C3=O)cc2)CC1 | inconclusive: 37.9 µM [inhibitor, single point]
O=S(=O)(Cc1ccccc1)N1CCN(c2ncccn2)CC1 | inactive
Cc1nc(CS(=O)(=O)c2ccc(Cl)cc2)sc1C(=O)O | inconclusive: 21.3 µM [inhibitor, single point]
O=C(CCCc1ccccc1)Nc1ccc(Br)cc1F | inconclusive: 23.9 µM [inhibitor, single point]
COC(=O)c1ccc(NC(=O)c2cccc(N3C(=O)CCC3=O)c2)cc1 | inconclusive: 30.1 µM [inhibitor, partial curve, poor fit]
Cc1ccc(Cl)cc1N1CCN(CCCNC(=O)c2ccc3nc(N4CCCCC4)sc3c2)CC1 | inconclusive: 12 µM [inhibitor, partial curve, poor fit]
CSCC[C@H](NC(=O)Nc1ccc(S(N)(=O)=O)cc1)C(=O)O | inactive
CCn1c2ccccc2c2cc(NC(=O)c3ccc(Br)o3)ccc21 | inconclusive: 26.9 µM [inhibitor, single point]
COc1ccc(CNC(=O)CN(C)Cc2ccccc2F)cc1OC | inactive

SMILES | Potency
CCOc1ccc(-n2c(=O)[nH]c3sc4c(c3c2=O)CCCC4)cc1 | inconclusive: 8.49 µM [inhibitor, partial curve, poor fit]
CCOc1cccc(-c2c(C(=O)N/N=C/c3ccc(C)s3)nnn2-c2nonc2N)c1 | inconclusive: 37.9 µM [inhibitor, partial curve, poor fit]
COc1ccc(/C(N)=N/OC(=O)Cc2ccc(C)cc2)cc1 | inconclusive: 15.1 µM [inhibitor, partial curve]
O=C(CSc1ncnc2c1cnn2CCc1ccccc1)Nc1cccc(C(F)(F)F)c1 | inconclusive: 37.9 µM [inhibitor, partial curve, poor fit]
CCOC(=O)C1=C(C)N2C(=C(C#N)[C@@H]1c1ccc(C(=O)OC)cc1)SC[C@@]2(O)C(C)(C)C | inactive
COc1cccc(CNc2cc(C)nc3nc(-c4ccc(C)cc4)nn23)c1 | active: 1.69 µM
N/C(CC1CC1(Cl)Cl)=N\OC(=O)c1ccccc1 (stereo unspecified) | inconclusive: 26.9 µM [inhibitor, partial curve, poor fit]
O=C1S/C(=C/c2ccc(N3CCOCC3)o2)C(=O)N1Cc1ccc(F)cc1 | inconclusive: 21.3 µM [inhibitor, partial curve, poor fit]
CCCc1cc(=O)[nH]c2nnc(SCC)n12 | inconclusive: 13.5 µM [inhibitor, partial curve, poor fit]
COc1cc(CNC(=O)c2cccc(COc3ccc(Cl)cc3)c2)cc(OC)c1 | active: 10.7 µM
Cc1ccc(N2CC(C)Cn3c2nc2c3c(=O)n(Cc3cccc(Cl)c3)c(=O)n2C)cc1 (stereo unspecified) | inactive
O=C(COc1ccc(Cl)cc1Cl)N(c1ccccn1)C1CCCCC1 | inconclusive: 23.9 µM [inhibitor, single point]
CCOC(=O)C1(CCOc2ccccc2)CCN(Cc2ccc3nonc3c2)CC1 | inactive
CC(C)[C@H](NS(=O)(=O)c1ccc2c(c1)OCCO2)C(=O)OCC(=O)Nc1cc(Cl)ccc1Cl | inactive
COc1ccc([C@H]2[C@H](C(=O)OC(C)(C)C)N3N=Cc4ccccc4C3C23C(=O)c2ccccc2C3=O)cc1OC (stereo partly specified) | active: 15.1 µM
COc1ccc(-n2nnc3c(SCC(=O)Nc4ccc5c(c4)OCCO5)ncnc32)cc1 | active: 7.57 µM
CC1Oc2ccccc2C=C1/C=N/NC(=O)c1ccccc1 (stereo unspecified) | active: 6.01 µM
Cc1c(Cl)cccc1NS(=O)(=O)c1ccc2c(c1)C1C=CCC1C(c1ccc(C(=O)O)cc1)N2 (stereo unspecified) | inconclusive: 37.9 µM [inhibitor, partial curve, poor fit]
Cc1cc(Cl)ccc1OCCCC(=O)NCCN1C(=O)S/C(=C\c2cccnc2)C1=O | inconclusive: 37.9 µM [inhibitor, partial curve, poor fit]
CCN1CCN(Cc2ccc(NC(=O)c3cc(NC(=O)c4cnnc5ccccc45)cc(OC)c3)cc2C(F)(F)F)CC1 | inconclusive: 21.3 µM [inhibitor, single point]
CC(C)[C@H](NC(=O)c1ccccc1Cl)C(=O)OCc1cc([N+](=O)[O-])cc2c1OCOC2 | inconclusive: 26.9 µM [inhibitor, single point]
O=C(O)c1ccccc1NSc1ccccc1[N+](=O)[O-] | inconclusive: 19 µM [inhibitor, single point]

SMILES | Potency
O=C(COC(=O)CC12CC3CC(CC(C3)C1)C2)Nc1cccnc1Cl | inconclusive: 30.1 µM [inhibitor, single point]
Cc1cccc(C(=O)Nc2cccc(C(=O)NC3CCCC3)c2)c1 | inconclusive: 26.9 µM [inhibitor, single point]
O=C(c1cccn1-c1nnc(N2CCCC2)s1)N1CCN(c2ccc(Cl)cc2)CC1 | inactive
O=C(NC1CCCC1)c1cccc(Cl)c1 | inactive
COc1ccc(C(=O)NCC(=O)N/N=C/c2cn(C)c3ccccc23)cc1OC | inconclusive: 26.9 µM [inhibitor, partial curve]
CCc1ccc(OCC(=O)N/N=C(\C)c2ccc(OC(F)F)cc2)cc1 | inconclusive: 3.38 µM [inhibitor, partial curve, poor fit]
Cc1ccnc(Nc2nc(-c3ccc(Cl)cc3)cs2)c1 | active: 2.69 µM
Cc1cc(C)n(-c2nnc(Nc3ccc(C)c(Cl)c3)c3ccccc23)n1 | inconclusive: 16.9 µM [inhibitor, partial curve, poor fit]
CCOC(=O)c1sc(NC(=O)Cc2c(F)cccc2Cl)nc1C | inconclusive: 37.9 µM [inhibitor, partial curve, poor fit]
O=C(Nc1ccc(F)cc1)Nc1ccc(S(=O)(=O)N2CCCC2)cc1 | inconclusive: 26.9 µM [inhibitor, partial curve, poor fit]
C/C(=N\OC(=O)Nc1ccc(Cl)cc1)c1ccc(F)c(F)c1 | inconclusive: 19 µM [inhibitor, partial curve]
CCOc1ccc(-c2noc(=O)[nH]2)cc1 | inconclusive: 19 µM [inhibitor, partial curve]
CCc1ccccc1NC(=O)Cc1ccc(NC(=O)N2CCCCc3ccccc32)cc1 | inconclusive: 21.3 µM [inhibitor, partial curve, poor fit]
Cc1cccc(NC(=O)CCCNC(=O)c2ccc(Cl)cc2)n1 | inactive
COC(=O)C1=NN(c2ccc(Cl)cc2)C2C(=O)N(c3ccccc3OC)C(=O)C12 (stereo unspecified) | inconclusive: 7.57 µM [inhibitor, partial curve, poor fit]
CC1(C)Cc2c(sc3nc(SCC(=O)N4CCOCC4)nc(N)c23)CO1 | inconclusive: 30.1 µM [inhibitor, partial curve, poor fit]
COc1ccc(CC(=O)OCC(=O)N2CCc3ccccc32)cc1OC | inconclusive: 21.3 µM [inhibitor, single point]
O=C(NNc1ncnc2ccccc12)c1cccc(Cl)c1 | active: 2.69 µM
COc1ccc(C)cc1NC(=O)c1cc2c(=O)n(Cc3cccnc3)ccc2nc1C | inactive
CCN(CC)S(=O)(=O)c1cccc(C(=O)Nc2sc3c(c2C#N)CCC(C)C3)c1 (stereo unspecified) | inconclusive: 7.57 µM [inhibitor, full curve]
O=C(N/N=C\c1cccc(Cl)c1)c1ccc(Cn2cccn2)o1 | active: 12 µM
Cc1occc1C(=O)NCCc1cccc(Cl)c1 | active: 21.3 µM

— PubChem BioAssay AID588342 (National Center for Advancing Translational Sciences (NCATS), 2011)
